From the supplement of paper PMC12067230
Single values of this set are uncertain.

Test: amyloid nucleation score relative to library mode (yeast Sup35 reporter selection) (log enrichment difference); higher = more amyloid nucleation; sequences are the first 22 residues of the Bri2 peptide extended by up to 12 random residues
Settings: random library (experiment): 1;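 active = nucleation score significantly above 0 at FDR 0.05; inactive = not significantly above 0 or absent from output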
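Further: [psi-pin-] Saccharomyces cerevisiae expressing SupN fusions, induced by 100 µM Cu2SO4, selected 7 d at 30 °C without adenine and uracil, scored by deep sequencing of output versus input.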

Row | Sequence | amyloid nucleation score
1 | EASNCFAIRHFENKFAVETLICGSL | -0.12
2 | EASNCFAIRHFENKFAVETLICGSLCNDCWRHLM | inactive
3 | EASNCFAIRHFENKFAVETLICGSLEVTLSIWAG | 0.872
4 | EASNCFAIRHFENKFAVETLICGSLLR | inactive
5 | EASNCFAIRHFENKFAVETLICGSLNGIDGGRRW | 3.26
6 | EASNCFAIRHFENKFAVETLICGSLRLGWSGCDA | 7.95
7 | EASNCFAIRHFENKFAVETLICGSLVLMALCV | 4.23
8 | EASNCFAIRHFENKFAVETLICGSMSGTQGWWGL | 5.71
9 | EASNCFAIRHFENKFAVETLICGSNMRGSVQFEC | -0.211
10 | EASNCFAIRHFENKFAVETLICGSNVRERHPVGR | inactive
11 | EASNCFAIRHFENKFAVETLICGSPNFQSYRIRH | inactive
12 | EASNCFAIRHFENKFAVETLICGSPWEYEPEPR | inactive
13 | EASNCFAIRHFENKFAVETLICGSQSCFRRLVSV | inactive
14 | EASNCFAIRHFENKFAVETLICGSQYP | inactive
15 | EASNCFAIRHFENKFAVETLICGSRDK | inactive
16 | EASNCFAIRHFENKFAVETLICGSRFDR | -0.648
17 | EASNCFAIRHFENKFAVETLICGSRGRQHVSSVR | inactive
18 | EASNCFAIRHFENKFAVETLICGSRSGRRARTRG | inactive
19 | EASNCFAIRHFENKFAVETLICGSRSRQQVKGEL | -0.203
20 | EASNCFAIRHFENKFAVETLICGSRWR | inactive

Row | Sequence | amyloid nucleation score
21 | EASNCFAIRHFENKFAVETLICGSSCSCR | inactive
22 | EASNCFAIRHFENKFAVETLICGSSDGSVRWEHS | inactive
23 | EASNCFAIRHFENKFAVETLICGSSDRYVSIRWM | inactive
24 | EASNCFAIRHFENKFAVETLICGSSGACSRLRHA | 3.56
25 | EASNCFAIRHFENKFAVETLICGSSGRRLRYGSR | 2.2
26 | EASNCFAIRHFENKFAVETLICGSSLGGNRMSEW | inactive
27 | EASNCFAIRHFENKFAVETLICGSSMGMFNSVKD | 3.92
28 | EASNCFAIRHFENKFAVETLICGSSMNGAALAHT | inactive
29 | EASNCFAIRHFENKFAVETLICGSSSVY | -0.25
30 | EASNCFAIRHFENKFAVETLICGSTLCLS | 5.63
31 | EASNCFAIRHFENKFAVETLICGSTRSAPYNNTR | inactive
32 | EASNCFAIRHFENKFAVETLICGSVGDDG | inactive
33 | EASNCFAIRHFENKFAVETLICGSVGFPDCHVAG | inactive
34 | EASNCFAIRHFENKFAVETLICGSVPVINVRYG | 4.51
35 | EASNCFAIRHFENKFAVETLICGSVVGERVLVSV | inactive
36 | EASNCFAIRHFENKFAVETLICGSVVSCTRPQYL | 6.65
37 | EASNCFAIRHFENKFAVETLICGSWEKDEAIGRL | inactive
38 | EASNCFAIRHFENKFAVETLICGSWGLLKELGRD | 1.73
39 | EASNCFAIRHFENKFAVETLICGSWTE | 5.31
40 | EASNCFAIRHFENKFAVETLICGSYLGGWCQVWR | 1.01

Row | Sequence | amyloid nucleation score
41 | EASNCFAIRHFENKFAVETLICGSYLYGFPLIRQ | inactive
42 | EASNCFAIRHFENKFAVETLICGT | inactive
43 | EASNCFAIRHFENKFAVETLICGTAARYR | 1.84
44 | EASNCFAIRHFENKFAVETLICGTACSKVGNSTL | inactive
45 | EASNCFAIRHFENKFAVETLICGTALM | inactive
46 | EASNCFAIRHFENKFAVETLICGTAYNFH | 6.94
47 | EASNCFAIRHFENKFAVETLICGTCGSCLGDLMQ | 7.38
48 | EASNCFAIRHFENKFAVETLICGTCGYSYCTLHW | 5.66
49 | EASNCFAIRHFENKFAVETLICGTELTLRRSHLV | inactive
50 | EASNCFAIRHFENKFAVETLICGTEV | inactive
51 | EASNCFAIRHFENKFAVETLICGTFEGRLSCGSM | inactive
52 | EASNCFAIRHFENKFAVETLICGTFKSCLLRLDR | inactive
53 | EASNCFAIRHFENKFAVETLICGTGEHDGHNVPG | 1.35
54 | EASNCFAIRHFENKFAVETLICGTGLRKAQRSDQ | inactive
55 | EASNCFAIRHFENKFAVETLICGTHLVAELACER | inactive
56 | EASNCFAIRHFENKFAVETLICGTHNSAVGCEGN | 0.693
57 | EASNCFAIRHFENKFAVETLICGTHVLLIHLKCV | 0.148
58 | EASNCFAIRHFENKFAVETLICGTK | inactive
59 | EASNCFAIRHFENKFAVETLICGTKFHYVWVRHG | inactive
60 | EASNCFAIRHFENKFAVETLICGTKPSNALSLGL | inactive
